The values below come from the supplement of paper PMC10600219.

Where a name gives a salt, the structure may show the parent alone. In all, about 2,800 compounds were measured (“cell viability relative to vehicle”: median about 1.1, lowest 2% from about 0.19 on). This is one part of the list.

In this test the test system is NCI-H2228 parental. Kind of test: cell viability relative to vehicle (fraction of vehicle); NCI-H2228 is an ALK-positive lung cancer line and DTP means drug-tolerant persister; higher = less growth inhibition. To be noted: 100 nM; treatment time 6 days. In a few lines:
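Parental NCI-H2228 cells and drug-tolerant persister cells (made with 1000 nM of a targeted drug for 13 days) were seeded in 384-well plates. The next day, the 3114-agent TargetMol anti-cancer compound library was added at 100 nM, with DMSO as vehicle. After 6 days, ATP was read with the CellTiter-Glo 3D Cell Viability Assay. Each value is cell viability relative to vehicle-treated cells.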
Take `CNCc1ccc(-c2cc(-c3nc(-c4ccc(S(=O)(=O)C(C)C)cc4)cnc3N)on2)cc1` [Berzosertib]: the cell viability worked out at 0.976. For the compound `COc1ccc(OC)c(C(O)CNC(=O)CN)c1` (configuration not stated) [Midodrine hydrochloride], the cell viability is 1.16. With `C=CC(=O)Nc1ccc(CN(C(=O)Nc2c(Cl)c(OC)cc(OC)c2Cl)c2cc(Nc3ccc(N4CCN(C)CC4)cc3)ncn2)cc1`, the cell viability amounted to 0.879. With `COC[C@H]1C[C@@H](c2nc(-c3ccc4c(c3)COc3cc5c(ccc6nc([C@@H]7CC[C@H](C)N7C(=O)[C@@H](NC(=O)OC)C(C)C)[nH]c65)cc3-4)c[nH]2)N(C(=O)[C@H](NC(=O)OC)c2ccccc2)C1` [Velpatasvir], the cell viability turned out to be 1.1. Under `C=CC(=O)Nc1cc2c(Nc3ccc(F)c(Cl)c3)ncnc2cc1OCCCN1CCOCC1` [Canertinib dihydrochloride] stands 1.12. Under `O=C(NCc1ccccc1)c1csc(Nc2ccncn2)n1` [Thiazovivin] stands 0.789. `CN(CC(=O)N(Cc1ccc(C2CCCCC2)cc1)c1ccc(C(=O)O)cc1)S(=O)(=O)c1c(F)c(F)c(F)c(F)c1F`: the cell viability turned out to be 1.07. The same measure for `OC(CNCC(O)C1CCc2cc(F)ccc2O1)C1CCc2cc(F)ccc2O1` (configuration not stated) [Nebivolol hydrochloride]: 1.1. Under `NC(=O)c1cccc2cn(-c3ccc([C@@H]4CCCNC4)cc3)nc12` [Niraparib] stands 1.08; under `Cc1cn(CCN2CCN(c3ccccc3-c3cc(C#N)cc(C(=O)NCCCN4CCCC4)c3)CC2)c2ccccc12`, 1.07; under `O=C(CCc1ccc(O)cc1)c1c(O)cc(O)cc1O` [Phloretin], 1.11. Consider `N#Cc1cccc(-c2c[nH]c3ncnc(N4CCOCC4)c23)c1`, for which the cell viability is 1.01. For the compound `CNC(=O)c1cccc(-c2ccc3c(N4CCOC[C@@H]4C)nc(N4CCOC[C@@H]4C)nc3n2)c1` [Vistusertib], the cell viability was 0.699. For the compound `C=CCNC(N)=S` [Allylthiourea], the cell viability came out at 1.12. In the case of `CN(C)CCOC(C)(c1ccccc1)c1ccccn1` (configuration not stated) [Doxylamine succinate], the cell viability was 1.06. Turning to `COc1cccc(-c2cc(=O)c3ccccc3o2)c1N`, the cell viability was determined as 1.06. The same measure for `Oc1c(I)cc(Cl)c2cccnc12` [Clioquinol]: 1.07; for `c1cnoc1` [Isoxazole]: 1.04; for `CC(C)(C#N)c1cc(Cn2cncn2)cc(C(C)(C)C#N)c1` [Anastrozole]: 1.1.

In the case of `COc1cc2nccc(Oc3ccc(NC(=O)Nc4cc(C)on4)c(Cl)c3)c2cc1OC` [Tivozanib], the cell viability is 1.06. With `O=C1N[C@](c2ccc(N3CCOCC3)cc2)(c2ccsc2)CC(O)=C1Sc1ccccc1Cl`, the cell viability amounted to 0.999. Under `O=C(Nc1ccccc1C(=O)NC1CCCCNC1=O)c1cc2ccccc2s1` (configuration not stated) stands 1.07. As for `Cc1ccc(C2Nc3ccccc3-n3c(-c4ccccc4)c4c(=O)n(C)c(=O)n(C)c4c32)o1` (configuration not stated), the cell viability amounted to 1.09. In the case of `CC(C)OC(=O)N1CCC(Oc2ncnc3c2cnn3-c2ccc(S(C)(=O)=O)cc2F)CC1`, the cell viability came out at 1.15. The same measure for `CN[C@@H](C)C(=O)N[C@H]1CN(C(=O)CC(C)C)CC[C@H]2CC[C@@H](C(=O)NC(c3ccccc3)c3ccccc3)N2C1=O`: 1.09; for `CN1[C@@H]2CC[C@H]1C[C@@H](OC(=O)c1c[nH]c3ccccc13)C2` [Tropisetron hydrochloride]: 0.831; for `COCCNCc1ccc(-c2cc3nccc(Oc4ccc(NC(=O)C5(C(=O)Nc6ccc(F)cc6)CC5)cc4F)c3s2)nc1` [Sitravatinib]: 1.06.

For the compound `Nc1nc(CC(=O)Nc2ccc(CCNC[C@H](O)c3ccccc3)cc2)cs1` [Mirabegron], the cell viability turned out to be 1.09. For the compound `NC[C@@H]1O[C@H](O[C@H]2[C@@H](O)[C@H](O[C@@H]3[C@@H](O)[C@H](N)C[C@H](N)[C@H]3O[C@H]3O[C@H](CO)[C@@H](O)[C@H](O)[C@H]3N)O[C@@H]2CO)[C@H](N)[C@@H](O)[C@@H]1O` [Paromomycin Sulfate], the cell viability was 0.966. In the case of `CC[C@]1(O)C[C@H]2CN(CCc3c([nH]c4ccccc34)[C@@](C(=O)OC)(c3cc4c(cc3OC)N(C=O)[C@H]3[C@@](O)(C(=O)OC)[C@H](OC(C)=O)[C@]5(CC)C=CCN6CC[C@]43[C@@H]65)C2)C1` [Vincristine sulfate], the cell viability came to 0.317. For `Cc1cc(=O)[nH]c(=S)[nH]1` [Methylthiouracil], the cell viability worked out at 1.08. `CCOc1ccc(Nc2nc(-c3c(C)nc4ccccn34)cs2)cc1`: the cell viability came out at 0.331. The same measure for `O=S(=O)(NCCSSCCNS(=O)(=O)c1cc(Cl)ccc1Cl)c1cc(Cl)ccc1Cl`: 1.01; for `Cc1cc(/C=C/C#N)cc(C)c1Nc1ccnc(Nc2ccc(C#N)cc2)n1` [Rilpivirine]: 0.983; for `Cc1ncc(NC(=O)c2cccc(C(F)(F)F)c2)cc1-c1cnc(OC2CCOCC2)c(N2CCOCC2)c1`: 1.01. Turning to `CCOc1cc2ncc(C#N)c(Nc3ccc(F)c(Cl)c3)c2cc1NC(=O)/C=C/CN(C)C` [Pelitinib], the cell viability was found to be 0.685. The same measure for `C=C1C(=O)[C@]23[C@H](O)[C@H]1CC[C@H]2[C@@]12CO[C@]3(O)[C@@H](O)[C@@H]1C(C)(C)CC[C@@H]2O` [Oridonin]: 1.17. In the case of `OCCOCCN1CCN(Cc2cccc(Oc3ccccc3)c2)CC1`, the cell viability is 1.07.

In the case of `COc1ccc([C@@H]2OC[C@H]3[C@@H]2CO[C@@H]3c2ccc3c(c2)OCO3)cc1OC` [Fargesin], the cell viability turned out to be 1. For `CCN(CC)CCNC(=O)c1c(C)[nH]c(/C=C2\C(=O)Nc3ccc(F)cc32)c1C` [Sunitinib Malate], the cell viability came to 1.02. `Cc1ncc(CCCN(C)C)cc1Nc1ncc2c(n1)-c1ccc(C(F)(F)F)cc1NC(=S)C2`: the cell viability came out at 0.178. Under `Oc1ccc(/C=C/c2cc(O)cc(O)c2)cc1` [Resveratrol] stands 1.28.

For the compound `C=CC(=O)Nc1cc(Nc2ncc(C(=O)Nc3cc(NC(=O)c4cc(OC)c(OC)c(OC)c4)ccc3C)c(NC)n2)ccc1C`, the cell viability amounted to 1.13.

As for `CC(C)c1cc2c(c(O)c1O)[C@@]13CCCC(C)(C)[C@@H]1C[C@@H]2OC3=O` [Carnosol], the cell viability was found to be 1.04. Consider `Nc1nc2[nH]cnc2c(=S)[nH]1` [Thioguanine], for which the cell viability came out at 0.582.

With `O=C(CN1CCN(C(=O)c2ccco2)CC1)Nc1cc(C(F)(F)F)ccc1Cl`, the cell viability came to 1.08. For `CC(C(=O)O)c1ccc2c(c1)[nH]c1ccc(Cl)cc12` (configuration not stated) [Carprofen], the cell viability is 0.867.

As for `COc1ccc(CCC(=O)O)cc1OC` [3,4-Dimethoxyhydrocinnamic acid], the cell viability was found to be 1.26. In the case of `C=CCc1cccc(/C=N/NC(=O)CN2CCN(Cc3ccccc3)CC2)c1O`, the cell viability is 0.946. As to `CC(NC(=O)C(Cc1ccccc1)NC(=O)OCc1ccccc1)C(=O)CF` (configuration not stated), the cell viability was 1.1. Under `CO/N=C(\C(=O)N[C@@H]1C(=O)N2C(C(=O)O)=C(CSc3nnnn3C)CS[C@H]12)c1csc(N)n1` [Cefmenoxime hydrochloride] stands 1.04; under `O=C1c2c(O)cccc2C([C@@H]2O[C@H](CO)[C@@H](O)[C@H](O)[C@H]2O)c2cc(CO)cc(O)c21` (some centres not stated) [Aloin], 1.13. With `O=C(Nc1cc(Oc2cc(F)c(NC(=O)C3(C(=O)Nc4ccc(F)cc4)CC3)cc2F)ccn1)C1CC1` [Altiratinib], the cell viability was 1.06. With `O=C(Nc1cccc(C(F)(F)F)c1)Nc1cc(S(=O)(=O)NC2CC2)ccc1-c1ccsc1`, the cell viability is 1.09. With `CN(C)CCN1C(=O)c2cccc3cc(NC(N)=O)cc(c23)C1=O`, the cell viability turned out to be 0.978. Turning to `Cc1c(C)c(NCC(=O)N(C)C2CCN(Cc3ccc(C(N)=O)cc3)CC2)c(C)c(C)c1N`, the cell viability is 1.02. On to `O=c1ccc2cc(O)c(O)cc2o1` [Esculetin], for which the cell viability was found to be 1.05. For `O=C(OCC(O)CO)c1ccccc1Nc1ccnc2cc(Cl)ccc12` (configuration not stated) [Glafenine], the cell viability is 1.09. On to `COc1ccc2c(c1)Nc1ccccc1S2` [2-Methoxyphenothiazine], for which the cell viability is 1.11. `CC1CNC(=O)NC1=O` (configuration not stated) [Dihydrothymine]: the cell viability was determined as 1.19.

As to `COc1cc2c(N3CCN(C(=O)Nc4ccc(OC(C)C)cc4)CC3)ncnc2cc1OCCCN1CCCCC1` [Tandutinib], the cell viability came out at 0.993.

As for `Cc1cc(O)c2c(c1)C(=O)c1cccc(O)c1C2=O` [Chrysophanic Acid], the cell viability was found to be 1.09. Take `CC(C(=O)O)c1ccc(-c2ccccc2)c(F)c1` (configuration not stated) [Flurbiprofen]: the cell viability worked out at 1.1. Take `Cn1cnc2[nH]c(=O)[nH]c(=O)c21` [7-Methylxanthine]: the cell viability amounted to 1.24. The same measure for `COc1ccccc1C(=O)Nc1cc2c(cc1N1CCCC1)n(C)c(=O)n2C`: 1.07; for `CC(CN1c2ccccc2S(=O)(=O)c2ccccc21)N(C)C` (configuration not stated) [Dioxopromethazine hydrochloride]: 1.11. As for `CC1(C)CC[C@]2(C(=O)O)CCC3=C([C@@H](CCl)C[C@@H]4[C@@]5(C)C[C@H](O)[C@H](O)[C@@](C)(C(=O)O)[C@@H]5CC[C@@]34C)[C@@H]2C1` [Senegenin], the cell viability amounted to 1.11. As to `O=[N+]([O-])c1ccc(-c2nc(-c3ccc(F)cc3)c(-c3ccncc3)[nH]2)cc1`, the cell viability was 1.1. As to `COc1cc(-c2cn(C)c(=O)c3cnccc23)cc(OC)c1CN(C)C`, the cell viability came out at 0.896. Under `CNCCCC1c2ccccc2C=Cc2ccccc21` [Protriptyline hydrochloride] stands 1.04; under `N[C@@H](CSCCB(O)O)C(=O)O`, 1.01; under `O[C@@H]1[C@@H](O)[C@@H](OC/C=C/c2ccccc2)O[C@H](CO[C@@H]2OC[C@H](O)[C@H](O)[C@H]2O)[C@H]1O` [Rosavin], 1.08. Under `C[C@]12CCC(=O)C=C1CC[C@@H]1[C@@H]2[C@@H](O)C[C@@]2(C)[C@H]1CC[C@]2(O)C(=O)CO` [Hydrocortisone] stands 1.02. For the compound `O=C(O)[C@H]1O[C@@H](Oc2cc3oc(-c4ccc(O)cc4)cc(=O)c3c(O)c2O)[C@H](O)[C@@H](O)[C@@H]1O` [Scutellarin], the cell viability was determined as 1.01.

On to `Cc1onc(-c2ccccc2)c1-c1ccc(S(N)(=O)=O)cc1` [Valdecoxib], for which the cell viability came out at 0.98. In the case of `Oc1ccc2c(c1)OCO2` [Sesamol], the cell viability came out at 1.06. With `O=C(Nc1ccccc1)c1cc([N+](=O)[O-])ccc1Cl`, the cell viability was 1.08.
